Measurements published in the supplement of paper PMC10986608.
The other results are listed elsewhere or left out. Many values rest on one well or one pass, so single values are uncertain.

test system: Candida albicans DPL-15; assay: growth (OD600) after compound treatment (apparently relative to screen median) (relative growth (fraction; screen median 1.02)); DPL-15 is a caspofungin-resistant clinical isolate; higher = more fungal growth (less antifungal activity); details: 25 µM; RPMI 1640; 48 h; 30 °C

Row | Structure (SMILES) | growth
1 | COC(=O)C1=C(C)N(Cc2ccccc2)C(=S)NC1c1cccc(OC)c1 (centres undefined) | 0.812
2 | COc1cccc(CO[C@H]2C=C[C@@H](c3ccccc3)O[C@@H]2CBr)c1 | 1.26
3 | CS(=O)(=O)Oc1c(CC23CCCC2=Nc2ccccc23)occc1=O (centres undefined) | 1.25
4 | CO[C@@H]1[C@H](O)CC[C@]2(O)CN(c3cccc(C#N)c3)[C@](C)([C@H](O)CC=C(C)C)[C@@H]12 | 0.896
5 | COc1ccc(N2C(=O)c3[nH]nc(-c4ccc(Cl)cc4Cl)c3C2c2ccc(F)cc2)cc1 (centres undefined) | 1.05
6 | COc1ccc(N2C(=O)c3nn(C)c(C(C)C)c3C2c2ccc(F)cc2)cc1 (centres undefined) | 0.959
7 | c1ccc(-c2cc3c(nc2-c2ccccc2)CCCC3)cc1 | 1.04
8 | CCCCNC1=NC(c2ccc(Cl)cc2)C(C(=O)OC)=C(C)N1Cc1cccc(C(F)(F)F)c1 (centres undefined) | 0.715
9 | COC(=O)C1=C(C)N(Cc2ccccc2)C(=O)N[C@H]1c1cccs1 | 0.845
10 | Cc1ccc(C2C3=C(C(=O)N2Cc2ccccc2)N(C)CCN=C3CC(C)C)cc1 (centres undefined) | 0.944
11 | COC(=O)C1=C(C)N(CCc2cccs2)C(NCc2ccc(C(F)(F)F)cc2)=NC1c1ccc(C)cc1 (centres undefined) | 0.854
12 | O=C1c2[nH]nc(-c3ccccc3)c2C(c2cccc(C(F)(F)F)c2)N1c1ccccc1 (centres undefined) | 0.961
13 | C=C1CC[C@H]2[C@H]3C4=C(O[C@@]3(C(C)C)O[C@]2(C)CC[C@@H]2[C@@H]1CC2(C)C)C(C)(C)C(=O)C(C)(C)C4=O | 1.04
14 | Clc1ccnc(CCCc2ccccc2)c1 | 1.09
15 | CC(C)(C)[Si](C)(C)O[C@H]1C=C(CO)[C@H](O)[C@H]2O[C@H]21 | 0.933
16 | COC(=O)N(/C=C/c1ccc(OC)cc1)CCc1ccc(OC)c(OC)c1 | 1.25
17 | CC(C)Cc1n[nH]c2c1C(c1ccc(F)cc1)N(CCN1CCCC1)C2=O (centres undefined) | 1.08
18 | CCOC(=O)C1=C(C)NC(=O)NC1c1ccc(F)cc1 (centres undefined) | 1.1
19 | c1ccc(CCCc2cccc(-c3cccnc3)n2)cc1 | 0.789
20 | CCc1ccccc1-n1nc(C)c2c1C(=O)NC2c1ccc2c(c1)OCO2 (centres undefined) | 1.12
21 | CCC[C@@H](O)COc1cc2c(cc1C1(c3cc4c(cc3OC[C@H](O)CCC)OCO4)C(=O)Nc3ccc(Br)cc31)OCO2 | 1.05
22 | COCOc1cc(OC)cc(O)c1C(=O)/C=C/c1ccccn1 | 1.03
23 | COC(=O)c1cc2c(c3c4ccccc4n(S(=O)(=O)c4ccc(C)cc4)c13)C(=O)N(Cc1ccccc1)C2 | 0.98
24 | COc1cc(C2NC(=O)N3CCC=CC3=C2C(C)=O)c(F)c(C(F)(F)F)c1 (centres undefined) | 1.06
25 | COc1ccccc1NS(=O)(=O)c1c(C(=O)N2CCCC2)c(C)n(C)c1C | 0.985
26 | Cn1nc2c(c1-c1ccccc1)C(c1ccccc1)N(c1ccccc1)C2=O (centres undefined) | 0.961
27 | CC(=O)OC[C@H]1O[C@H](c2ccc(C(F)(F)F)cc2)C=C[C@H]1OC(C)=O | 1.03

Row | Structure (SMILES) | growth
28 | COC(=O)C/C=C/[C@H](C)[C@@H](NC(=O)C(C)(C)NC(=O)OC(C)(C)C)c1ccccc1 | 0.88
29 | CN1CCN=C(c2ccccc2)C2=C1C(=O)N(c1ccccc1)C2c1ccc(F)cc1 (centres undefined) | 1.01
30 | Cc1cc(C2(c3cc(C)c(O)c(C)c3)C(=O)Nc3cc(F)ccc32)cc(C)c1O | 1.13
31 | C=CC[C@@H](Cc1c(OC)cc(O)c(C(=O)c2ccccc2)c1O)C(=C)C | 0.921
32 | COC(=O)[C@]1(CC(C)C)NC=C(C(=O)c2ccccc2)[C@@H]1c1cccs1 | 1.16
33 | O=C1OC(c2ccc(Br)cc2)c2cc(F)cc(OCC(F)(F)F)c21 (centres undefined) | 1.21
34 | COC(=O)C1=C(C)N(Cc2ccc(F)cc2)C(=S)NC1c1ccc(Cl)cc1 (centres undefined) | 1.03
35 | COc1ccc(CN2C(=O)c3[nH]nc(CC(C)C)c3C2c2ccc(F)cc2)nc1 (centres undefined) | 0.961
36 | CC(C)CC1=NCCN(C)C2=C1C(c1cccc(C(F)(F)F)c1)NC2=O (centres undefined) | 0.923
37 | COc1ccc(N2C(=O)c3[nH]nc(CC(C)C)c3C2c2ccc3c(c2)OCO3)cc1 (centres undefined) | 1.07
38 | COc1ccc(-c2c(C)c(C)cc3cc4c(cc23)OCO4)cc1 | 1.11
39 | COc1ccc(C[C@H]2CO[C@H](c3ccc(OC)c(OC)c3)[C@H]2CO)cc1OC | 1.06
40 | CCCCCCCc1cc(C(F)(F)F)cc(Cl)n1 | 1.04
41 | CC(C)=CC[C@H]1C[C@]23C[C@H](CC=C(C)C)C(C)(C)[C@](CC=C(C)C)(C(=O)C(C(=O)c4ccccc4)=C2OC1(C)C)C3=O | 1.37
42 | C#CCC(C)(C)CNC(=O)[C@@H]1C[C@@H](O)CN1 | 1.06
43 | CC(C)C1=NCCN(C)C2=C1C(c1cccc(C(F)(F)F)c1)N(Cc1ccccc1)C2=O (centres undefined) | 1
44 | CC(C)c1nn(-c2ccc(OC(F)(F)F)cc2)c2c1C(c1ccccc1)NC2=O (centres undefined) | 1.18
45 | COC(=O)c1[nH]c2ccc(F)cc2c1[C@]12CCN(C(=O)Cc3ccc(C)cc3)[C@H]1Nc1ccccc12 | 1.09
46 | COC(=O)C1=C(C)N(Cc2ccccc2)C(NCc2cc(OC)c(OC)c(OC)c2)=N[C@H]1c1cccc(F)c1 | 0.991
47 | C=CCN1C(=O)[C@H]2[C@H]([C@H]3c4ccccc4[C@]2([C@@H](COC)OC)c2ccccc23)[C@@]1(O)c1ccccc1 | 1.07
48 | COC(=O)C1=C(C)N(Cc2ccc(Br)cc2)C(=S)NC1c1cccc(F)c1 (centres undefined) | 0.962
49 | CN(C)/N=C/c1c(O)cc(CO)cc1O | 1.04
50 | CC(=O)[C@@H]1[C@@H](C)N(Cc2ccccc2)C(=O)N[C@H]1c1cccc(C(F)(F)F)c1 | 0.97
51 | COc1cc2c(c(OC)c1OC)C[C@@H]1COC(=O)[C@H]1Cc1c-2cc(OC)c(OC)c1OC | 1.11
52 | COC(=O)C1=C(C)N(Cc2ccc(C(F)(F)F)cc2)C(NCc2cccc(C(F)(F)F)c2)=NC1c1ccccc1 (centres undefined) | 1.11
53 | COCOc1cc(O)c2c(=O)cc(-c3ccccc3)oc2c1 | 1.05
54 | COc1cc(OC)c2c(ccc3c(OC)ccc(O)c32)c1 | 1.1

Row | Structure (SMILES) | growth
55 | COc1ccc([C@@]23Oc4cc(OC)cc(OC)c4[C@]2(O)[C@H](O)[C@H](C(=O)c2nccn2C)[C@H]3c2ccccc2)cc1 | 1.11
56 | CC1=CCO[C@@]12C(=O)c1cc(Cl)ccc1O[C@@]2(OCCc1ccccc1)c1ccc(Cl)cc1 | 0.859
57 | CC(=O)C1=C2C=CCCN2C(=O)NC1c1ccc(C(F)(F)F)c(F)c1 (centres undefined) | 1.05
58 | C[C@@H]1CC[C@H]2C(=O)O[C@H](CN=[N+]=[N-])CN2[C@H]1c1ccc(Br)cc1 | 0.93
59 | COc1cc2c(cc1OC)CN(CCc1ccc(N)cc1)CC2 | 1.09
60 | CC(C)C1=NCCN(C)C2=C1C(c1ccccc1)N(c1ccccc1)C2=O (centres undefined) | 0.941
61 | COC(=O)C1=C(C)N(C)C(NCc2ccc(C(F)(F)F)cc2)=NC1c1ccc(Cl)cc1 (centres undefined) | 0.978
62 | CC(C)n1cc(Nc2cc(O)cc(O)c2C(=O)N2CCC(F)(F)C2)cn1 | 1.12
63 | CC(C)C[C@@H](O)COc1cc2c(cc1C1(c3cc4c(cc3OC[C@H](O)CC(C)C)OCO4)C(=O)Nc3cc(F)ccc31)OCO2 | 0.739
64 | CC(C)c1c2c(nn1-c1ccccc1)C(=O)NC2c1cccc(C(F)(F)F)c1 (centres undefined) | 0.959
65 | C=CC[C@@H](C[C@@]12C[C@H](CC=C)C(C)(C)[C@@](C(=O)c3ccccc3)(C(=O)C=C1O)C2=O)C(=C)C | 1.04
66 | COC(=O)C1=C(C)N(Cc2ccc(Br)cc2)C(=S)NC1c1ccc(OC)cc1 (centres undefined) | 1
67 | O=S(=O)(c1ccccc1)N1CCCc2nc(-c3ccc(Br)cc3)ccc21 | 0.931
68 | C=CCN1C(=O)C2=C(C(C(C)C)=NCCN2)C1c1ccccc1 (centres undefined) | 0.956
69 | COC(=O)C1=C(C)N(Cc2cccc(C(F)(F)F)c2)C(=S)NC1c1cccc(Cl)c1 (centres undefined) | 0.881
70 | COc1ccc(CN2C(=O)c3[nH]nc(CC(C)C)c3C2c2ccc(F)cc2)cc1 (centres undefined) | 0.945
71 | CO[C@@H]1[C@H](O)CC[C@]2(O)CN(c3ccc4ncsc4c3)[C@@H](CC=C(C)C)[C@](C)(O)[C@@H]12 | 0.931
72 | CC(=O)OC[C@H]1O[C@H](C#Cc2cccc(C)c2)C=C[C@@H]1OC(C)=O | 0.869
73 | O=C1N[C@H](c2ccccc2)CO/C=C\C=C\c2cccc(n2)C(=O)N2C[C@H](O)C[C@@H]12 | 1.05
74 | Cc1nn(Cc2ccccc2)c2c1C(c1cccc(C(F)(F)F)c1)NC2=O (centres undefined) | 0.894
75 | C=C(C)[C@]1(O)C[C@@H](C)[C@]2(O)[C@@H]3CCC4(OCCO4)[C@@]3(O[Si](C)(C)C)CC(C)=C[C@@]23O[C@@H]13 | 1.02
76 | CC(C)CC1=NCC(C)(C)NC2=C1C(c1ccc3c(c1)OCO3)N(c1ccccc1)C2=O (centres undefined) | 1.01
77 | C[C@H]1O[C@H]2C3=C(CCOC3=O)[C@@H]1[C@@H]1C(=O)N(Cc3ccccc3)C(=O)[C@@H]12 | 1.17
78 | COc1ccc2c(c1)[C@@H](NC(=O)C(C)(C)C)[C@H](C)[C@H]2c1ccccc1 | 1.2
79 | CO[C@@H]1[C@H](O)CC[C@]2(O)CN(CC3CCCCC3)[C@@H](CC=C(C)C)[C@](C)(O)[C@@H]12 | 1
